# Assay results from PubChem BioAssay AID1347073 (National Center for Advancing Translational Sciences (NCATS), 2019).
# About 200 (0.44%) of roughly 45,000 compounds were called active. Another 7% or so got no clear call; they are omitted. Calls come from the whole dose curve; as a rule, active = well fitted activation curve with a large enough effect; inconclusive = small, poorly fitted or top-dose-only effect; inactive = no such curve, though single readings can be large or run the other way. The list shows a part of the results.
# Test: qHTS of TDP-43 Inhibitors: NCGC Sytravon Library Screen; note: 0% is about no effect; nearly all actives have a fitted effect of over 55% in size
# Conditions: yeast TDP-43 toxicity rescue, BacTiter-Glo growth, 24 h; series mostly up to 46.1 µM; growth rescue (activation): at the top concentration
# In short: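 TDP-43-expressing yeast, pregrown in raffinose, seeded at OD600 0.02 in galactose medium with compound for 24 hr at 30 deg C. Growth read by BacTiter-Glo luminescence, so rescue of toxicity appears as activation.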
row,SMILES,growth rescue (activation)
1,COc1ccc(-c2[nH]ncc2C(=O)NCc2cccc(OC)c2)cc1,inactive: 12.1%
2,Cc1ccsc1CN(C(=O)COc1ccc(Cl)cc1)C1CCS(=O)(=O)C1 (stereo unspecified),inactive: 1.99%
3,CCC(c1nnnn1C1CCCC1)N1CCN(c2cccc(OC)c2)CC1 (stereo unspecified),inactive: -21.2%
4,Cc1cccnc1C(NC(=O)C1CCN(CCCc2ccccc2)CC1)c1ccc(F)cc1 (stereo unspecified),inactive: 1.04%
5,CC(=O)C1=C(C)NC2=C(C(=O)c3ccccc32)C1c1ccccc1 (stereo unspecified),inactive: 9.36%
6,Cc1cccc(NC(=O)/C(=C/c2cccc([N+](=O)[O-])c2)NC(=O)c2cccs2)c1,inactive: -11.1%
7,Oc1ccc(NC(=S)N=Nc2c(O)[nH]c3ccc(Br)cc23)cc1,inactive: -5.91%
8,COC(=O)Cn1c(=O)c2c(n(Cc3ccccc3)c1=O)N/C(=C/c1ccc(OC)cc1)C2=O,inactive: 26.6%
9,Cc1ccc(/C=C(\C#N)C(=O)Nc2cccc(Cl)c2)o1,inactive: 0.111%
10,O=C(/C=C/c1c(F)cccc1Cl)Nc1nc2ccccc2[nH]1,inactive: 0.127%
11,NS(=O)(=O)c1ccc(NC(=O)COC(=O)C2CC(=O)N(Cc3ccccc3)C2)cc1 (stereo unspecified),inactive: 14.6%
12,CCCC(C(=O)O)n1c(O)c(C=C2N=c3ccccc3=N2)sc1=S (stereo unspecified),inactive: -4.39%
13,CC(=O)NC(c1ccc2ccccc2c1)c1ccc2cccnc2c1O (stereo unspecified),inactive: 25.5%
14,CCOC(=O)c1c(CN(C)C)n(C)c2c(O)c(N=NC(N)=O)c3ccc(Br)cc3c12,inactive: -4.77%
15,Cc1coc2c1c(C)cc1oc(=O)c(CC(=O)NCC(=O)O)c(C)c12,inactive: -13.8%
16,O=C(c1ccc(C(F)(F)F)cc1)C1CCCN(C(=O)CCN2CCCO2)C1 (stereo unspecified),inactive: -0.0735%
17,CCCn1c(C)cc(-c2csc(N)n2)c1C,inactive: 12.3%
18,O=S(=O)(c1cccc(C(F)(F)F)c1)N1CCN(c2cnccn2)CC1,inactive: 11.2%
19,O=C(O)C1CCN(C(=O)c2ccco2)CC1,inactive: 3.91%
20,CC(NC(=O)C1CCN(CCOc2ccc(Cl)cc2)CC1)c1cccc2ccccc12 (stereo unspecified),inactive: -7.53%
21,Oc1c(Br)cc(Br)cc1CNc1ccccn1,inactive: -0.11%
22,O=[N+]([O-])c1cnc(N2CCCCC2)c([N+](=O)[O-])c1,inactive: 10.1%

row,SMILES,growth rescue (activation)
1,CCOC(=O)/C(=C\c1ccc(C)cc1)NC(=O)c1ccccc1,inactive: 0.91%
2,Cc1ccc(C(=O)N/N=C\c2c(C)nn(-c3ccccc3)c2Cl)cn1,inactive: 18.1%
3,O=C(Cn1cc(C(=O)COc2ccccc2)c2ccccc21)NCc1ccco1,inactive: 8.44%
4,Cc1ccc(C)c(S(=O)(=O)Nc2ccc3[nH]c(=O)[nH]c3c2)c1,inactive: 12.6%
5,Cc1ccccc1C(=O)NC(=S)NC1CCSC1=O (stereo unspecified),inactive: 18.5%
6,COc1ccc(C2(C)NC(=O)N(CC(=O)NC3CC3)C2=O)cc1 (stereo unspecified),inactive: 8.54%
7,OCC1(Cc2ccccc2C(F)(F)F)CCN(Cc2ccncc2)CC1,inactive: 21.2%
8,OCCNc1ccc(Cl)cc1,inactive: -5.21%
9,O=C(OCc1c(Cl)cccc1Cl)c1ccccn1,inactive: 19.5%
10,O=C(Nc1ccc(NC(=O)c2ccc([N+](=O)[O-])cc2[N+](=O)[O-])cc1)c1ccco1,inactive: -3.46%
11,CC(=O)Nc1cccc(-c2cc(C)c3cc4c(cc3n2)OCO4)c1,inactive: 3.45%
12,OC(CNCc1cccc(Br)c1)c1ccccc1 (stereo unspecified),inactive: -1.2%
13,O=C(COc1ccc(S(=O)(=O)N2CCCC2)cc1)N1CCCCC1,inactive: 9.05%
14,O=C(NC1CC1)C1CCN(C(=O)c2ccccc2Cl)CC1,inactive: 1.49%
15,CCC(C)(C)NC(=O)C(c1ccc(F)cc1)N(Cc1cccc(OC)c1)C(=O)c1cnccn1 (stereo unspecified),inactive: -9.92%
16,CN(C)S(=O)(=O)c1cccc(NC(=O)CSc2nc3c(cc2C#N)C(=O)CC(C)(C)C3)c1,inactive: 6.31%
17,O=C(O)C(NS(=O)(=O)c1ccccc1)C(O)c1ccccc1 (stereo unspecified),inactive: 8.61%
18,O=C(Nc1ccccc1)C1CCN(C(=O)c2ccco2)CC1,inactive: 10.6%
19,CCSc1ncc(Cl)c(C(=O)Nc2c(C(=O)Nc3ccccc3)oc3ccccc23)n1,inactive: -6.68%
20,O=C(O)c1c(-c2ccccc2)oc2ccc(OCc3c(F)cccc3Cl)cc12,inactive: 4.92%
21,Cc1cc(C)cc(C(=O)Nc2ccc3[nH]c(=O)[nH]c3c2)c1,inactive: 4.77%
22,O=C(CN1CCCC1)Nc1ccc([N+](=O)[O-])cc1Cl,inactive: 16.3%

row,SMILES,growth rescue (activation)
1,Cc1ccc(C(=O)N2CCN(c3ccccc3F)CC2)cc1S(=O)(=O)N1CCOCC1,inactive: -15.2%
2,CN(CC1COc2ccccc2O1)C(=O)CSc1nncs1 (stereo unspecified),inactive: 15.4%
3,COc1cc(/C=N/Nc2nc(Nc3ccccc3)nc(N3CCCCC3)n2)ccc1OCC(=O)O,inactive: 7.18%
4,O=C(NCc1cccs1)C1CCCN1C(=O)Nc1ccccc1Cl (stereo unspecified),inactive: 8.64%
5,CCOc1ccc2[nH]c(=O)c(CN(Cc3ccc(F)cc3)C(=O)c3ccco3)cc2c1,inactive: 9.96%
6,N=C1C(c2nc3ccccc3[nH]2)=C(O)CN1NC(=O)c1c[nH]c2ccccc12,inactive: 7.69%
7,COc1ccc(N(Cc2cc3ccc(C)cc3[nH]c2=O)C(=O)C2CCCO2)cc1 (stereo unspecified),inactive: -9.23%
8,NC(=O)c1ccc(NC(=O)CSc2nnc(-c3ccccn3)n2N)cc1,inactive: 4.58%
9,O=C(CSc1n[nH]c(=O)n1Cc1ccccc1)Nc1ccc(F)c(F)c1F,inactive: 12.2%
10,Cc1noc(C)c1-c1ccc(C(=O)N2CCN(C)CC2)c2occc12,inactive: -9.62%
11,CC1CCCCN1C(=O)/C=C/c1ccccc1[N+](=O)[O-] (stereo unspecified),inactive: 9.99%
12,Cn1c(=O)c(C(=O)NNC(=O)c2ccccc2Br)c(O)c2ccccc21,inactive: -22.4%
13,COc1cc(C(O)c2nc(-c3cnn(C)c3)cs2)ccc1F (stereo unspecified),inactive: 18.9%
14,O=C(COc1ccc(Cl)cc1[N+](=O)[O-])N1CCCCCC1,inactive: 10.6%
15,CCOc1ccc(NC(=O)c2ccccc2OC)cc1,inactive: 27.1%
16,CCOC(=O)c1sc(NC(=O)C2CC(=O)N(c3ccc(OC)cc3)C2)nc1C (stereo unspecified),inactive: 15.9%
17,CC(=O)NC(C)c1nc2ccccc2n1CC(=O)NC(C)CCc1ccccc1 (stereo unspecified),inactive: 0.0427%
18,COc1ccccc1OCC(=O)Nc1ccccc1C(=O)NCc1cccnc1,inactive: 2.44%
19,Cc1ccc(S(=O)(=O)NCCSc2nncn2C)cc1,inactive: 9.95%
20,O=C(NCCSc1ccccn1)c1ccc(Cl)cc1,inactive: 3.25%
21,O=C(CSc1nc2ccccc2s1)N/N=C/c1cc([N+](=O)[O-])ccc1O,inactive: 8.87%
22,O=C(c1cc(-c2ccccc2)nc2ccccc12)N1CCCC1,inactive: 9.29%

row,SMILES,growth rescue (activation)
1,O=C(OCC(=O)N1CCCCC1)c1cc(S(=O)(=O)N2CCOCC2)c(Cl)cc1Cl,inactive: 9.71%
2,O=C(NC1=NCCS1)c1ccc(Cl)c(S(=O)(=O)N2CCCC2)c1,inactive: -3.23%
3,CC(C)(C)c1cc(-c2ccccc2)no1,inactive: 10%
4,CCOC(=O)C1=C(C)NC(C)=C(C(=O)OCC)C1C(=O)OCC(=O)N1CCC(C)CC1,inactive: -21.1%
5,Cc1cccc(C)c1OCC(=O)Nn1c(=O)[nH]c2ccccc2c1=O,inactive: 3.68%
6,O=C(CSc1ncnc2ccccc12)Nc1cccc(S(=O)(=O)N2CCCC2)c1,inactive: 9.3%
7,COc1ccc([N+](=O)[O-])cc1NC(=O)c1ccccc1N(C)S(C)(=O)=O,inactive: 7.48%
8,Cc1ccc(S(=O)(=O)N(CC(O)CN2C(=O)NC(C)(C)C2=O)c2ccccc2)cc1 (stereo unspecified),inactive: 4.05%
9,Cc1ccc(Cn2nnc3c(=O)[nH]c(C4CCCN(S(=O)(=O)c5ccc(F)cc5)C4)nc32)cc1 (stereo unspecified),inactive: 12.7%
10,COc1cc(CNc2ccc3[nH]c(=O)[nH]c3c2)ccc1OCc1ccccc1F,inactive: 14.2%
11,COc1ccc(NC(=O)c2cccc(C#N)c2)cc1NS(=O)(=O)c1ccc(F)cc1,inactive: 3.12%
12,O=C(O)c1ccc(N=c2oc3cc(O)ccc3cc2C(=O)NCc2ccccc2)cc1,inactive: -12.1%
13,COc1ccccc1Oc1c(C)oc2c(CN3CCN(CCO)CC3)c(O)ccc2c1=O,inactive: 5.48%
14,CCN=C1SC(CC(=O)Nc2ccccc2)C(=O)N1CC (stereo unspecified),inactive: 9.74%
15,Nc1ncc(-c2ccccc2)c(-c2ccc(OCc3ccccc3)cc2O)n1,inactive: 16.9%
16,CC(C)c1ccc(OCC(=O)Nc2ccc(OC(F)(F)F)cc2)cc1,inactive: 10.1%
17,CCCCCNC(=O)Cn1c(=O)c2c(ncn2CC(C)C)n(Cc2ccccc2)c1=O,inactive: 3.8%
18,COc1cc(Nc2c3ccccc3nc3ccccc23)cc(OC)c1OC,inactive: -6.93%
19,O=C(/C=C\c1ccco1)Nc1nc(-c2ccc3ccccc3c2)cs1,inactive: -2.6%
20,COc1ccc(C2(c3ccc(OC)cc3)NC(=O)N(CC(=O)Nc3cc(C)on3)C2=O)cc1,inactive: -3%
21,COc1cccc(CN(C)CC(O)COC(c2ccccc2)c2ccccc2C)c1 (stereo unspecified),inactive: -6.56%
22,O=C(COc1ccc(Br)cc1Cl)NC(=O)Nc1ccc2c(c1)OCCO2,inactive: 15.2%

row,SMILES,growth rescue (activation)
1,O=C(c1ccc(CSc2ccccc2)cc1)N1CCCCCC1,inactive: 17.5%
2,O=C(O)C(Cc1ccccc1)Nc1ccc([N+](=O)[O-])cc1[N+](=O)[O-] (stereo unspecified),inactive: 11.5%
3,COc1ccc(S(=O)(=O)NCc2cc(-c3ccccc3Cl)no2)cc1,inactive: -21.4%
4,Cc1ccc(C(=O)N2CCN(c3ccc(NC(=O)c4cc(C)cc(C)c4)cc3)CC2)cc1,inactive: 16.9%
5,O=S(=O)(NC(=NC1CCCCC1)c1ccccc1F)c1ccccc1,inactive: 14.6%
6,COc1cc(Cl)ccc1OC1(C)CCN(Cc2ccc(SC)cc2)C1 (stereo unspecified),inactive: 19.3%
7,O=C(O)c1nn2c(c1Br)NC(c1ccccc1)CC2C(F)(F)F (stereo unspecified),inactive: 5.45%
8,COC(=O)c1c(-c2ccccc2)csc1NC1=NS(=O)(=O)c2ccccc21,inactive: 9.67%
9,COc1ccc(CNC(=O)COC(=O)[C@@H]2CCCN2C(=O)c2cccs2)cc1,inactive: -1.02%
10,CCOC(=O)C1CCCN(C(=O)c2ccccc2NS(=O)(=O)c2ccc(F)cc2)C1 (stereo unspecified),inactive: -10.2%
11,O=C(C1CCCO1)N1CCN(S(=O)(=O)c2cccc3nsnc23)CC1 (stereo unspecified),inactive: 1.35%
12,O=C(c1ccc(N2CCCS2(=O)=O)cc1)N1CCN(c2ccccc2)CC1,inactive: 11%
13,Cc1ccnc(N2CCCC(C(=O)Nc3ccc(C)c(C)c3)C2)n1 (stereo unspecified),inactive: 7.78%
14,O=[N+]([O-])c1cccc(COc2ncnc3cc([N+](=O)[O-])ccc23)c1,inactive: 26.1%
15,COc1ccc(OC)c(NC(=O)C2(C)CCN2C(=O)C2(c3ccccc3)CCCC2)c1 (stereo unspecified),inactive: 22.7%
16,CCc1cc(CC)c(/C=N/NC(N)=O)c(CC)c1/C=N/NC(N)=O,inactive: 7.35%
17,CCCCNC(=O)Cn1nc([N+](=O)[O-])c([N+](=O)[O-])c1C,inactive: -2.15%
18,O=C(CN1C(=O)C(=O)N(CCC2=CCCCC2)C1=O)c1c[nH]c2ccccc12,inactive: 8.97%
